Results: PubChem BioAssay AID588342 (National Center for Advancing Translational Sciences (NCATS), 2011)
“And” between values parts separate entries of the source, which are not always exact repeats. Equal entries are not always repeated. Hit rate of the full screen: of about 360,000 compounds, about 25,000 (6.9%) were called active. Inconclusive means that the source gave no clear call. Such entries were picked first, then a sample of the others. The call rests on the fitted dose curve; in most records, active means well fitted inhibition curve with a large enough effect; inconclusive means small, poorly fitted or top-dose-only effect; inactive means flat fitted curve, though single readings scatter. A potency beside an inconclusive call is a rough fit, not a confirmed value.

The compounds below were run against Luciferin 4-monooxygenase (Photinus pyralis) (UniProt P08659) (assay: qHTS profiling assay for firefly luciferase inhibitor/activator using purifed enzyme and Km concentrations of substrates (counterscreen for miR-21 project)). Settings: purified FLuc, luminescence inhibition; series mostly up to 57.5 µM.
Chain of UniProt P08659 (P08659 whole entry, looked up): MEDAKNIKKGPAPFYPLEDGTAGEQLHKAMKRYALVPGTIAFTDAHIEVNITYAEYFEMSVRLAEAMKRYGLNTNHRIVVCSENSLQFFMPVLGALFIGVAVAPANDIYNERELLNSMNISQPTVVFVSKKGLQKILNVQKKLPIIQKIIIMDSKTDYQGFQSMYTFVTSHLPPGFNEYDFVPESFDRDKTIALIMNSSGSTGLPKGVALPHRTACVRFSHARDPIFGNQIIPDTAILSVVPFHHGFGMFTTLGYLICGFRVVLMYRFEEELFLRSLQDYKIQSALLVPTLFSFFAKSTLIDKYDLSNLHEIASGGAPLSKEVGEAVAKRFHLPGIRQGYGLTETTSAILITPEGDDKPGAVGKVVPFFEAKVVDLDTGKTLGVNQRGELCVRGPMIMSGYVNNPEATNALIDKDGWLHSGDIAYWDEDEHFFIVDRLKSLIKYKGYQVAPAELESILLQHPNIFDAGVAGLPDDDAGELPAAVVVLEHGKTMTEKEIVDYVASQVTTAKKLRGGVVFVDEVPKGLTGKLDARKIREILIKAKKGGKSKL
Method in brief: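 Purified P. pyralis luciferase (10nM final) with 10uM D-luciferin and 10uM ATP (Km levels) in 50mM Tris acetate pH 7.5, 10mM Mg acetate, 0.01% Tween-20, 0.05% BSA; qHTS 6-point titration, ~60 µM downward; luminescence read.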
Further: nearly all actives have a fitted effect of over 55% in size.
Potency means the concentration at half of the fitted maximal effect; tags describe the fitted curve by direction and shape.

| Compound | Potency |
| --- | --- |
| OCCN1CCN(C(c2ccc(Cl)cc2Cl)c2sc3nc(-c4ccco4)nn3c2O)CC1 (stereo not drawn) | inconclusive: 37.9 µM [inhibitor, partial curve, poor fit] |
| Cc1ccc(C)n1-c1cccc(C(=O)O)c1 | inactive |
| CN(C)S(=O)(=O)c1cccc(C(=O)NCCOC(=O)c2cc(F)c(F)cc2Cl)c1 | inactive |
| O=[N+]([O-])/C=C\c1ccc(N2CCCC2)c(F)c1 | inconclusive: 7.57 µM [inhibitor, partial curve, poor fit] |
| CCOc1ccc(-n2c(SCC(=O)Nc3ccc4c(c3)OCCO4)nc3c([nH]c4ccccc43)c2=O)cc1 | inactive |
| Cc1ccc(/C=C/c2ccc3cccc(O)c3n2)s1 | active: 2.69 µM |
| CC(=O)Nc1ccc(S(=O)(=O)NCC(=O)OCC(=O)N2CCN(c3ccccc3)CC2)cc1 | inconclusive: 33.8 µM [inhibitor, partial curve, poor fit] |
| c1ccc(CCNc2nc(-c3ccncc3)cs2)cc1 | inconclusive: 6.75 µM [inhibitor, partial curve, poor fit] |
| O=C(O)c1ccccc1Nc1ccc(OC(F)F)cc1 | active: 21.3 µM |
| Cc1ccc(C(=O)Nc2cccc3cccnc23)cc1C | active: 12 µM |
| Cc1occc1C(=O)Nc1sccc1C(N)=O | inconclusive: 30.1 µM [inhibitor, partial curve, poor fit] |
| COc1ccc(-n2c(C)nc3cc(C(=O)NC4CCCCCC4)ccc32)cc1 | inconclusive: 21.3 µM [inhibitor, partial curve] |
| Nc1c(-c2ccccc2)c(CSc2nc3ccccc3[nH]2)nn1-c1ccc(Cl)cc1 | inactive |
| O=C(COc1ccc2c(-c3ccccc3)cc(=O)oc2c1)NC1CCS(=O)(=O)C1 (stereo not drawn) | inconclusive: 15.1 µM [inhibitor, partial curve, poor fit] |
| CN(Cc1ccccc1)S(=O)(=O)c1cccc(C(=O)O)c1 | inconclusive: 37.9 µM [inhibitor, partial curve, poor fit] |
| Cc1ccc(Nc2cc(C)c3c(O)cccc3n2)cc1C | active: 9.53 µM |
| C=CCc1ccc(OCc2ccc(C(=O)Nc3ccc(NC(C)=O)cc3)o2)c(OC)c1 | inconclusive: 10.7 µM [inhibitor, partial curve] and inconclusive: 16.9 µM [inhibitor, partial curve] |
| CCCC1(c2ccccc2)NC(=O)N(CC(=O)c2[nH]c(C)c(C(=O)OCC)c2C)C1=O (stereo not drawn) | inconclusive: 26.9 µM [inhibitor, partial curve, poor fit] |
| Cc1cnc(NC(=O)CC2CCCC2)s1 | inconclusive: 16.9 µM [inhibitor, partial curve, poor fit] |
| CCN(CC)CCCNc1nc(-n2nc(C)cc2C)nc2sc3c(c12)CC(C)(C)OC3 | inconclusive: 30.1 µM [inhibitor, partial curve, poor fit] |
| COc1ccc2c(c1)C(=NNc1ccc(C(=O)O)cc1)c1cc(OC)ccc1-2 | active: 6.01 µM |
| CCCCOc1ccc(N=Cc2ccc[nH]2)cc1 | active: 3.79 µM |

| Compound | Potency |
| --- | --- |
| COc1ccc2c(c1)c(=O)oc1cc(OCC(=O)N3CCC(C)CC3)ccc12 | inconclusive: 7.57 µM [inhibitor, partial curve, poor fit] |
| COc1ccc(-c2noc(CCCc3ccccc3)n2)cc1OC | inconclusive: 26.9 µM [inhibitor, partial curve, poor fit] |
| CCN1CCN(C(=O)CCc2nnc(CCc3c[nH]c4ccccc34)o2)[C@@H](C)C1=O | inactive |
| S=C1NC2=C(CCCC2=C2SCCS2)C(c2ccccc2)N1 (stereo not drawn) | inconclusive: 16.9 µM [inhibitor, partial curve, poor fit] |
| COC(=O)CSc1ccc(S(=O)(=O)N2CCCCCC2)cc1[N+](=O)[O-] | inactive |
| O=C(CCN1C(=O)c2ccccc2C1=O)C1=NN[C@@H]2C(=O)N(c3cccc(F)c3)C(=O)[C@H]12 | inconclusive: 37.9 µM [inhibitor, partial curve, poor fit] |
| CC(C)c1ccc(NC(=O)c2ccc(Cn3nc(N4CCN(c5ccccc5)CC4)ccc3=O)o2)cc1 | inconclusive: 19 µM [inhibitor, partial curve] |
| O=C(Cn1ncn2nc(-c3cccs3)cc2c1=O)NCc1ccccc1Cl | inactive |
| CC(C)c1ccc(C2CC(c3ccc(Br)cc3)=NN2C(N)=S)cc1 (stereo not drawn) | inconclusive: 23.9 µM [inhibitor, single point] |
| COc1ccnc(Oc2ccc(C)cc2C)c1C#N | inconclusive: 26.9 µM [inhibitor, single point] |
| CCN(CC(=O)Nc1c(F)cccc1F)C(=O)CNC(=O)c1ccc(C)s1 | active: 15.1 µM |
| CC(=O)Nc1cccc(NC(=O)C(=O)c2cn(CC(=O)N3CCCCC3)c3ccccc23)c1 | active: 8.49 µM |
| COc1ccccc1/C=C(/C(=O)OCC(=O)Nc1cc(C)ccc1C)c1ccccc1 | inactive |
| CCCCc1ccc(NS(=O)(=O)c2cccc(C(=O)N3CCCN(C)CC3)c2)cc1 | inactive |
| c1ccc(-c2cc(N3CCCCCC3)n[nH]2)cc1 | active: 21.3 µM |
| O=C(c1ccc(-c2ccc(Cl)cc2)o1)N1CCN(S(=O)(=O)c2cccs2)CC1 | inconclusive: 19 µM [inhibitor, partial curve, poor fit] |
| COc1ccc(NC(=O)CN2C(=O)C3(SCC(=O)N3c3ccccc3)c3ccccc32)cc1Cl (stereo not drawn) | inconclusive: 12 µM [inhibitor, partial curve] |
| COc1ccc(/C=C2\CCc3ccccc3C2=O)cc1OC | active: 5.36 µM |
| CS(=O)(=O)N1CCN(C(=O)c2cc(-c3ccccc3)nc3ccccc23)CC1 | inconclusive: 9.53 µM [inhibitor, partial curve] |
| COc1cccc(N2C(C(C)=O)=NN(c3ccccc3)C2c2ccc(N3CCOCC3)cc2)c1 (stereo not drawn) | inconclusive: 26.9 µM [inhibitor, single point] |
| COc1ccc(C(=O)c2ccc(OC)cc2O)c(O)c1 | inconclusive: 23.9 µM [inhibitor, single point] |
